From PubChem BioAssay AID1645882 (National Center for Advancing Translational Sciences (NCATS), 2021) come the findings set out here.

Structures are written as SMILES. Hit rate of the full screen: of about 16,000 compounds, about 120 (0.75%) were called active. Inconclusive results (about 4%) are left out. Calls come from the whole dose curve; as a rule, active = well fitted inhibition curve with a large enough effect; inconclusive = small, poorly fitted or top-dose-only effect; inactive = no such curve, though single readings can be large or run the other way. The list shows a part of the results.

The test concerns the target Rap guanine nucleotide exchange factor 3 (Homo sapiens) (UniProt O95398). As to the kind of experiment: Validation qHTS for antagonist of cAMP-regulated guanine nucleotide exchange factor 3 (EPAC1).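 Note: plate controls were DMSO for no effect and ATA control for full effect; nearly all actives have a fitted effect of over 75% in size.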 The conditions noted are these: EPAC1 Rap1B-BODIPY-GDP exchange, fluorescence; series mostly up to 150 µM; activity change, negative = inhibition: at the top concentration. Put shortly: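 Nucleotide exchange followed as fluorescence loss when BODIPY-GDP leaves Rap1B (480 nm excitation, 540 nm emission), read at 5 min intervals over 30 min. Reaction: 100 nM EPAC1, 250 nM RAP1B-BODIPY-GDP, 50 uM GDP; ATA and DMSO define normalization.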
UniProt O95398, sequence (O95398 whole entry, looked up): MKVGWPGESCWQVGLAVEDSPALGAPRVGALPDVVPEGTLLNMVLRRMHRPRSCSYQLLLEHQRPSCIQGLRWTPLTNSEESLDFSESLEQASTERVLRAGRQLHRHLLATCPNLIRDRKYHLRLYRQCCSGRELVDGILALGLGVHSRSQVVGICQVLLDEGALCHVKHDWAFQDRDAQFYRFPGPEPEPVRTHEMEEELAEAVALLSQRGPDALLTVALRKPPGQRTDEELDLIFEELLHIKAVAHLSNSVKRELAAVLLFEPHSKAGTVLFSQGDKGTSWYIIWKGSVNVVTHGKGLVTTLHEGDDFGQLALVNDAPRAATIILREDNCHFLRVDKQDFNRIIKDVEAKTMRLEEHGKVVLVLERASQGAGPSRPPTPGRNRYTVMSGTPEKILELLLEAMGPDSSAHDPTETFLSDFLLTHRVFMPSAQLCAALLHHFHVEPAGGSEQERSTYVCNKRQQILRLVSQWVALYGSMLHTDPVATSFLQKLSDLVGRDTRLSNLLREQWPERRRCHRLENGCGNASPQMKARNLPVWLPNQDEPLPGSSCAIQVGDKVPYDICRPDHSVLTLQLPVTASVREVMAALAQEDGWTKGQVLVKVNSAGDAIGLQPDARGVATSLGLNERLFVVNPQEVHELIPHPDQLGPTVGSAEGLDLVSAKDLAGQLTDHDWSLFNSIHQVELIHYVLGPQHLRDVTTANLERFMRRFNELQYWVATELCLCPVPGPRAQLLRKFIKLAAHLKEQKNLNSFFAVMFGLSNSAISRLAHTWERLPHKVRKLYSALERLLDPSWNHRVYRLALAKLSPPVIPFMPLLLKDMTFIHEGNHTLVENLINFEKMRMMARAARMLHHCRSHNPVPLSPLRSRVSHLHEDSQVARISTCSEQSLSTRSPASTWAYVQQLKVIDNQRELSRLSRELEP
(In general: qHTS replaces the single test concentration by a dilution series.)
Take `CC(=O)N[C@@H](Cc1c[nH]c2ccccc12)C(=O)OCc1cc(C(F)(F)F)cc(C(F)(F)F)c1`: the “activity change, negative = inhibition” value is inactive: 9.21% [at 75.8 µM].

For the molecule `Cc1ccc2c(c1)c1c3n2CCNC3CCC1` (stereo not given), the “activity change, negative = inhibition” value was inactive: 8.5%.

For `CCC(=O)OCC(=O)C1(OC(=O)CC)C(C)CC2C3CCC4=CC(=O)C=CC4(C)C3(Cl)C(O)CC21C` (stereo not given), the “activity change, negative = inhibition” value is inactive: -12.9%.

On to `c1ccc2sc(-c3cc4c(c(OC5CCOC5)c3)OCCN(Cc3cccn3-c3nccs3)C4)nc2c1` (stereo not given), for which the “activity change, negative = inhibition” value was inactive: -3.98%.

For `COC(=O)C1=C(C)NC(C)=C(C(=O)O[C@@H]2CCCN(Cc3ccccc3)C2)[C@@H]1c1cccc([N+](=O)[O-])c1`, the “activity change, negative = inhibition” value was inactive: -6.84%.

On to `COc1cccc(CNc2ncnc3sc(C(=O)N4CCOCC4)c(C)c23)c1OC`, for which the “activity change, negative = inhibition” value was inactive: 23.3%.

Consider `C=C(C)C1(O)OC(=O)C=C1OC` (stereo not given), for which the “activity change, negative = inhibition” value was inactive: 16.4%.

With `COCc1ccc(C(=O)N2CCOc3ccc(CN4CCN(c5ccc(F)cc5)CC4)cc3C2)o1`, the “activity change, negative = inhibition” value is inactive: 17.9%.

Turning to `Cn1cccc1C(=O)N1CCC2(CCN(C(=O)Nc3cccc(F)c3)CC2)CC1`, the “activity change, negative = inhibition” value is inactive: 11.2%.

In the case of `O=C(N[C@H](CO)[C@H](O)c1ccc([N+](=O)[O-])cc1)C(Cl)Cl`, the activity change, negative = inhibition entry was “inactive”.

For `COc1cccc(Cc2nc3cccnc3n2C2CCN(C(=O)c3n[nH]c4c3CCCC4)CC2)c1`, the “activity change, negative = inhibition” value is inactive: 26.7%.

Turning to `O=C(O)CCNC(=O)c1ccccc1`, the “activity change, negative = inhibition” value is inactive: -10.9%.

Turning to `COCc1ccc(CN2Cc3cc(Cl)ccc3OC(C)C2)o1` (stereo not given), the “activity change, negative = inhibition” value is inactive: 8.83%.

As for `C/C(=C\c1ccco1)CN1CCOc2ccc(C(C)(O)COc3ccccc3)cc2C1` (stereo not given), the “activity change, negative = inhibition” value is inactive: -2.04%.

For `CCC[C@@H]1C[C@@H](C(=O)N[C@@H]([C@H]2O[C@H](SC)[C@H](O)[C@@H](O)[C@H]2O)[C@H](C)Cl)N(C)C1`, the “activity change, negative = inhibition” value was inactive: 19.1%.

On to `NC(C(=O)O)[C@H](O)C(=O)O` (stereo not given in full), for which the “activity change, negative = inhibition” value is inactive: 20.6%.

For `O=C(O)C1OC(O)C(O)C(O)C1O` (stereo not given), the “activity change, negative = inhibition” value was inactive: -18.6%.

On to `O=C(c1ccncc1)N1CCC2(CC1)CN(c1ncccn1)C2`, for which the “activity change, negative = inhibition” value is inactive: 15.2%.

For the molecule `NCCCNCCCCN(CCCN)/[N+]([O-])=N/O`, the “activity change, negative = inhibition” value was inactive: 4.33%.

Regarding `CCC1CN(CCNC(=O)c2cccc(N3CCCC3=O)c2)Cc2cc(OC)ccc2O1` (stereo not given), the “activity change, negative = inhibition” value was inactive: 4.01%.

As for `Cn1cnc2c1c(=O)[nH]c(=O)n2C`, the activity change, negative = inhibition entry is “inactive”.

With `CC(C)NC(=O)N1CCCC2(CCN(S(=O)(=O)c3ccccc3)CC2)C1`, the “activity change, negative = inhibition” value is inactive: 17.9%.

Turning to `CCCN(CCC)c1ccc(/C=C/c2ccnc3ccccc23)cc1`, the “activity change, negative = inhibition” value is inactive: 417%.

Take `COc1ccc(C(=O)N2CCC[C@@]3(CCN(C(=O)Nc4cccc(F)c4)C3)C2)cc1`: the “activity change, negative = inhibition” value is inactive: 18.1%.

`CC1=NN(c2ccccc2)C(=O)C1`: the activity change, negative = inhibition result is “inactive”.

`Cc1c(C(=O)NCc2ccco2)cnn1-c1ncc2c(n1)-c1ccccc1CC2`: the “activity change, negative = inhibition” value is inactive: 7.46%.

As for `COCC(=O)N1CCC2(CC1)CN(C(=O)Nc1cccc(C#N)c1)C2`, the “activity change, negative = inhibition” value is inactive: 1.9%.

Consider `CCN(CC)CCNC(=O)c1cc(Cl)c(N)cc1OC`, for which the activity change, negative = inhibition result was “inactive”.

As to `NCCCNCCCCNCCCN`, the activity change, negative = inhibition result is “inactive”.

In the case of `CN(C)C/C=C(/c1ccc(Br)cc1)c1cccnc1`, the activity change, negative = inhibition result was “inactive”.

Consider `CCOc1ccc2ccccc2c1C(=O)N[C@@H]1C(=O)N2[C@@H]1SC(C)(C)[C@@H]2C(=O)O`, for which the “activity change, negative = inhibition” value is inactive: 5.46% [at 75.8 µM].

Turning to `C/C=C/C=C/C(=O)O`, the “activity change, negative = inhibition” value is inactive: -1.84%.

On to `O=C(c1cccc(F)c1)N1CCC2(CC1)CN(c1ccncc1)C2`, for which the “activity change, negative = inhibition” value was inactive: 7.63%.

Turning to `COc1cccc(Cn2c(=O)c(C)nc3cnc(N(C)C)nc32)c1`, the “activity change, negative = inhibition” value was inactive: 2.21%.

For the molecule `CN(C)c1ncc2nc(-c3ccc(F)cc3)c(=O)n(Cc3ccc(F)cc3)c2n1`, the “activity change, negative = inhibition” value is inactive: 6.18%.

For `O=C(OC1C[C@@H]2CC3C[C@H](C1)N2CC3=O)c1c[nH]c2ccccc12` (stereo not given in full), the “activity change, negative = inhibition” value is inactive: 19.8%.

Regarding `COc1ccccc1-n1cc(CN2CCC3(CCC(CNC(=O)c4ccccc4)O3)CC2)cn1` (stereo not given), the “activity change, negative = inhibition” value was inactive: 11.4%.

As to `CN(N=O)C(=O)N[C@@H]1[C@@H](O)[C@H](O)[C@@H](CO)O[C@@H]1O`, the “activity change, negative = inhibition” value is inactive: 12.8% [at 75.8 µM].

Consider `NCCCC(=O)O`, for which the activity change, negative = inhibition result was “inactive”.

Regarding `COC(=O)c1cccc(C(=O)NCc2nc(-c3cccc(NC(=O)c4ccoc4C)c3)oc2C)c1`, the “activity change, negative = inhibition” value is inactive: 0.0592%.

Regarding `Cc1ccc(-c2nn(C(C)(C)C)c3ncnc(N)c23)cc1`, the activity change, negative = inhibition entry was “inactive”.

Consider `NC(=O)NCC(N)C(=O)O` (stereo not given), for which the “activity change, negative = inhibition” value is inactive: -10.1%.

For the molecule `NCCc1cnc[nH]1`, the activity change, negative = inhibition result is “inactive”.

Regarding `CCCCCCCCCCCCCCCCCCCCCCO`, the “activity change, negative = inhibition” value was inactive: 9.98%.

Regarding `Cc1ccc(C(C)CCN2CCOc3ccc(CN4CCOCC4)cc3C2)o1` (stereo not given), the “activity change, negative = inhibition” value is inactive: 2.35%.

As for `COc1c2c(c(C(=O)/C=C/C(C)=C/c3ccccc3)c3c1OCO3)CCN(C)C2`, the “activity change, negative = inhibition” value is inactive: 10%.

On to `COc1ccc(O)cc1`, for which the “activity change, negative = inhibition” value was inactive: 12.2%.

Turning to `CC(=O)NC(Cc1ccccc1)C(=O)O` (stereo not given), the “activity change, negative = inhibition” value was inactive: 8.72%.

Turning to `CN(C)c1ncc2ncc(=O)n(CCC#N)c2n1`, the “activity change, negative = inhibition” value was inactive: 7.43%.

Turning to `Cc1c(C(=O)N2CC3CCC2C3)sc2ncnc(NCc3ccco3)c12` (stereo not given), the “activity change, negative = inhibition” value is inactive: 5.49%.

As to `Cc1c(-c2ccccc2)oc2c(C(=O)OCCN3CCCCC3)cccc2c1=O`, the “activity change, negative = inhibition” value was inactive: -10.5% [at 75.8 µM].

For `Cn1cccc1C(=O)N1CCC2(CCN(Cc3ccncc3)CC2)CC1`, the “activity change, negative = inhibition” value was inactive: 15.3%.

As to `C#Cc1cccc(C(=O)NCc2nc(-c3cccc(NC(=O)c4ccccn4)c3)oc2C)c1`, the “activity change, negative = inhibition” value was inactive: -5.39%.

On to `COc1ccccc1CN1CCCC2(CCN(S(C)(=O)=O)CC2)C1`, for which the “activity change, negative = inhibition” value is inactive: 20%.

For the molecule `COC(=O)c1cccc(C(=O)N2CCc3c(C(=O)OC)c(OCc4ccccn4)cc(=O)n3CC2)c1`, the “activity change, negative = inhibition” value is inactive: 3.21%.

As to `CCCCCC(O)/C=C/C=O` (stereo not given), the “activity change, negative = inhibition” value was inactive: 26.4%.

Consider `Cc1noc(C)c1-c1nc(Nc2ccncc2)c2ccccc2n1`, for which the “activity change, negative = inhibition” value was inactive: 20.5%.

On to `Cn1cc(-c2nc3cnc(N4CCNCC4)nc3n(CCc3ccccc3)c2=O)c2ccccc21`, for which the “activity change, negative = inhibition” value is inactive: 35.7%.

As to `COc1ccccc1CNc1ncnc2ccc(-c3ccoc3)cc12`, the “activity change, negative = inhibition” value is inactive: -0.75%.

Take `COC(=O)N1CCC2(CCN(C(=O)Nc3ccccc3)CC2)CC1`: the “activity change, negative = inhibition” value was inactive: 13.7%.

Take `O=C1CCN(Cc2ccc([N+](=O)[O-])cc2)CCN1[C@H](CO)Cc1ccccc1`: the “activity change, negative = inhibition” value was inactive: 11.4%.

For `COc1cccc(C(=O)NCC2Cc3cccc(-c4cccnc4)c3O2)c1` (stereo not given), the “activity change, negative = inhibition” value is inactive: -20.9%.

For the molecule `NC(N)=NC(=O)Cc1c(Cl)cccc1Cl`, the activity change, negative = inhibition result is “inactive”.

Consider `CC1(C)O[C@H]2CC(=O)OC[C@]23[C@H]2CC[C@@]4(C)[C@H](c5ccoc5)OC(=O)[C@H]5O[C@]54[C@]2(C)C(=O)C[C@@H]13`, for which the “activity change, negative = inhibition” value was inactive: -17.3%.

`COc1cccc(-c2cncnc2N(C)Cc2ccco2)c1`: the “activity change, negative = inhibition” value is inactive: 7.03%.

As to `COc1ccc(CN2CCC(=O)N([C@H](CO)CC(C)C)CC2)cc1`, the “activity change, negative = inhibition” value is inactive: 0.258%.

Take `CCN(CC)CCOC(=O)c1ccc(N)cc1Cl`: the “activity change, negative = inhibition” value is inactive: 27.7%.

Regarding `COCCn1c(=O)c(C)nc2cnc(Nc3ccccc3)nc21`, the “activity change, negative = inhibition” value was inactive: 15.9%.

`C=C(C(=O)O)[C@@H]1CC[C@@]2(C)CCC[C@](C)(O)[C@@H]2C1`: the “activity change, negative = inhibition” value was inactive: 20%.

Turning to `COc1ccc(CN2CCCC(c3nc(-c4ccncc4)ncc3-c3ccccc3)C2)c(OC)c1OC` (stereo not given), the “activity change, negative = inhibition” value was inactive: 3.05%.
